# Experimental data from the supplement of paper PMC10338343.
# ± gives the standard deviation. Only a part is listed here, and it is no random draw.
# Tested on: MIWI (PIWIL1) piRISC loaded with L1MC piRNA (30 nt)
# Assay: pre-steady-state target cleavage rate (min^-1); MIWI and MILI are mouse PIWI proteins and EfPiwi is from a freshwater sponge; tags in brackets are library labels; higher = faster piRNA-guided slicing of the target
# Conditions: guide: L1MC piRNA 5'p-UAACUAAAUACUAUGCAAGCUGUAGGUCCU; auxiliary factor: 500 nM mouse GTSF1
# Method in brief: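 Cleave-'n-Seq reactions paired 0.1 nM transcribed, DNA-blocked target RNA library with 1 nM active affinity-purified piRISC holding one synthetic guide, plus or minus 500 nM GTSF1 partner protein, in HEPES–potassium acetate buffer at 33 °C for 0–8 or 0–960 min. After sequencing of uncleaved targets and normalisation to depth and weakly complementary targets, the pre-steady-state cleavage rate was taken from a burst-and-steady-state fit. Three trials were pooled, and k3 was capped at 0.0001 min^-1.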
row,Sequence,pre-steady-state target cleavage rate
1,UCCUGGAUCACCUAGCAUAGUAUUUAGUUA,0.0493 ± 0.011
2,UCCUGGUACAGCUUGGUUAGUAUUUUCAAA,0.00719 ± 0.0059
3,UGGACCUACAGCAACCAUAGUAUUUAGAAA,0.00362 ± 0.0029
4,UGGACCUAGUGCUUGCAUAGUAUUUUCAAA,0.0146 ± 0.0034
5,UCCUGGAUGAGCUACCAUAGUAUUUAGUUA,0.0107 ± 0.0041
6,UCCUGGAUGUCGAACCAUAGUAUUUAUGUUA,< 0.0001
7,UCCUGGAUGUCGAUGGCAUAGUAUUUAGUUA,0.00605 ± 0.0041
8,UCCACCUAGUGCUUGCAUAGUAUUUUCAAA,0.0568 ± 0.012
9,AGGACCUACAGGAAGCAUAGUAUUUAGAAA,0.292 ± 0.051
10,UCCACCUACACGUUGCAUAGUAUUUAGAAA,0.306 ± 0.032
11,UCCUGGAUGUCCUAGCAUAGUAUUUACUUA,0.013 ± 0.0057
12,UCCUGGUACAGCUUGCAUACUAUUUUCAAA,0.0442 ± 0.014
13,UCCACCUACAGGAAGCAUAGUAUUUAGUAA,0.474 ± 0.047
14,AGGACCUACAGCUUCCAUAGUAUUUUGUUA,0.181 ± 0.056
15,UCCUGGAUCAGCUUGCGAUAGUAUUUAGUUA,0.00597 ± 0.0041
16,UCCACCUACAGCUUGCAAUCUAUUUAGUUA,0.194 ± 0.018
17,UCCUGGAACAGCUUGCUAAGUAUUUAGAAA,0.00993 ± 0.0048
18,UCCUGGUACAGCUUGCAUAGUAUAAUCAAA [g8:g24:cont:t1A],0.131 ± 0.029
19,UCCUGGAUGUCGAUGCAUAGUAUUUAGUUC [g2:g17:cont:t1C],0.00513 ± 0.0032

row,Sequence,pre-steady-state target cleavage rate
1,UCCUGGAACAGCUUGCAUAGUAUUAACAAA,0.29 ± 0.051
2,UCCACCUACAGCUUGCAUAGUUUUUUCAAA,0.144 ± 0.028
3,UCCUGCUACAGCUUGCAUACUAUUUAGAAA,0.137 ± 0.021
4,UCCACCUACAGCUUCCAAAGUAUUUAGUUA,0.298 ± 0.036
5,UCGACCUACAGCUACCAUAGUAUUUACAAA,0.0302 ± 0.013
6,UCCUGGAACUCGUUGCAUAGUAUUUAGAAA,0.0103 ± 0.0043
7,UCCUCCUACAGCUUGCUAAGUAUUUAGUAA,0.066 ± 0.012
8,UCCUCCUACAGCUUGCCAUAGUAUUUAGUUA,0.208 ± 0.03
9,UCCUGGUACAGCUUGCAUAGUAUUAAGAAA,0.101 ± 0.023
10,UCCACCUACAGCUUGCAUAGUAUUUAUUA,0.263 ± 0.041
11,UCCUGGAUCACCAUGCAUAGUAUUUAGUUA,0.0303 ± 0.0068
12,UCCUGGAUCAGCUUCCAUAGUAUUUUGUUA,0.0116 ± 0.0052
13,UCCUGGAACACGAUGCAUAGUAUUUAGUAA,0.0185 ± 0.0056
14,UCCUGCUACAGCAACCAUAGUAUUUAGUUA,0.22 ± 0.032
15,UCCUGGAACACGUUGCAUAGUAUUUACAAA,0.0172 ± 0.0064
16,UCCUCCUACAGCUUGCAUAGUUUUAGUUA,0.0154 ± 0.0079
17,UCCUGGAUGUCCUUGGAUAGUUUUUAGUUA,0.00494 ± 0.0029
18,UCGACCUACAGCUUGCAUAGUAUAUACAAA,0.434 ± 0.069
19,UCCUGGAUGAGGAAGCAUAGUAUUUAGUUA,0.0108 ± 0.0036
